# Measurements: publication PMC6796939
# Results are given in words; binding and its absence hold for the method and conditions named. Binding seen in cells or lysates may run through a third protein. Some entries that bind do so weakly or less than the wild type. Sequences can lack the tags named with a protein.
# Legend:
# [1] = molecular target: T1, V5-tagged Ptc (PtcWT-V5) (Drosophila) (UniProt P18502); experiment: co-IP; S2 cells co-transfected with tagged constructs; lysed in NP-40 buffer (50 mM Tris-Cl pH 8.0, 0.1 M NaCl, 1% NP-40, 10% glycerol, 1.5 mM EDTA) at 4 °C; primary antibody (anti-V5, anti-HA, anti-Flag) 2 h, protein A/G 1 h; western blot; some panels with or without Hh (Hh plasmid and Hh conditioned medium), some with dsRNA against ptc 5'UTR to knock down endogenous Ptc
# T1 sequence: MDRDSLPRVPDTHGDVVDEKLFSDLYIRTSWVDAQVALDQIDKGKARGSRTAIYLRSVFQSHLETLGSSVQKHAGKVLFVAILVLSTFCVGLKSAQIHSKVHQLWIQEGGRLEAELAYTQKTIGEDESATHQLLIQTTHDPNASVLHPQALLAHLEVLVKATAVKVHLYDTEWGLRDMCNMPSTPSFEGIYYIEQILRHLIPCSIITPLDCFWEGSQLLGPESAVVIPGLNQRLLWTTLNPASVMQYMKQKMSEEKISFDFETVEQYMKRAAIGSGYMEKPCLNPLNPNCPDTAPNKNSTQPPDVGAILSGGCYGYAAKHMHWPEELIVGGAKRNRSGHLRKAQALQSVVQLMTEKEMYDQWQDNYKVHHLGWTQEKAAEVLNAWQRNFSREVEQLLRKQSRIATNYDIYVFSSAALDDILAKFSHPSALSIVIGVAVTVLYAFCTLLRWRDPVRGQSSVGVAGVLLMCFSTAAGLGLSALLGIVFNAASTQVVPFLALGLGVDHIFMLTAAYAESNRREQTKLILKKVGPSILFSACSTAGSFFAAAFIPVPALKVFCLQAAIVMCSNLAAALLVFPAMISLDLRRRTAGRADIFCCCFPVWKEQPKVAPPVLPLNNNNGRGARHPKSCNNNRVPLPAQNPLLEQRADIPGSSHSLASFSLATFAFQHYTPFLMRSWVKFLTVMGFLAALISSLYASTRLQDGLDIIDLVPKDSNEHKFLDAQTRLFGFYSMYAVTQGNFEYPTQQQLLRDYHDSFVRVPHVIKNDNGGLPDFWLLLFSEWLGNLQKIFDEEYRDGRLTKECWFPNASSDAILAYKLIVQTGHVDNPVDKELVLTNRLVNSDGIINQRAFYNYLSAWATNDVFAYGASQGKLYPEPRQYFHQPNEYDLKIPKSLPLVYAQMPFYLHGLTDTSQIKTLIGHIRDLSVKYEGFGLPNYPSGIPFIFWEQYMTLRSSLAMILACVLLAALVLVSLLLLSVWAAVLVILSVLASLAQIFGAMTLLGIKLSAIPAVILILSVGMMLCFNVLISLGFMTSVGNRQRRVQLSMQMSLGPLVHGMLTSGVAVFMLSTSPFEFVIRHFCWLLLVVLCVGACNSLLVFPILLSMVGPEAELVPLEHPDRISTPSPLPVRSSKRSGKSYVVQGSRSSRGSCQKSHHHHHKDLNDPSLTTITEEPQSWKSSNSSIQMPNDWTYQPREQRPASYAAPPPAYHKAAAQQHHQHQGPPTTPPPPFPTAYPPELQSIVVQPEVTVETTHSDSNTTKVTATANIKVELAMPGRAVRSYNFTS
# [2] = molecular target: T2, PtcWTΔC4-V5 (Drosophila) (UniProt P18502); experiment: as above
# T2 sequence: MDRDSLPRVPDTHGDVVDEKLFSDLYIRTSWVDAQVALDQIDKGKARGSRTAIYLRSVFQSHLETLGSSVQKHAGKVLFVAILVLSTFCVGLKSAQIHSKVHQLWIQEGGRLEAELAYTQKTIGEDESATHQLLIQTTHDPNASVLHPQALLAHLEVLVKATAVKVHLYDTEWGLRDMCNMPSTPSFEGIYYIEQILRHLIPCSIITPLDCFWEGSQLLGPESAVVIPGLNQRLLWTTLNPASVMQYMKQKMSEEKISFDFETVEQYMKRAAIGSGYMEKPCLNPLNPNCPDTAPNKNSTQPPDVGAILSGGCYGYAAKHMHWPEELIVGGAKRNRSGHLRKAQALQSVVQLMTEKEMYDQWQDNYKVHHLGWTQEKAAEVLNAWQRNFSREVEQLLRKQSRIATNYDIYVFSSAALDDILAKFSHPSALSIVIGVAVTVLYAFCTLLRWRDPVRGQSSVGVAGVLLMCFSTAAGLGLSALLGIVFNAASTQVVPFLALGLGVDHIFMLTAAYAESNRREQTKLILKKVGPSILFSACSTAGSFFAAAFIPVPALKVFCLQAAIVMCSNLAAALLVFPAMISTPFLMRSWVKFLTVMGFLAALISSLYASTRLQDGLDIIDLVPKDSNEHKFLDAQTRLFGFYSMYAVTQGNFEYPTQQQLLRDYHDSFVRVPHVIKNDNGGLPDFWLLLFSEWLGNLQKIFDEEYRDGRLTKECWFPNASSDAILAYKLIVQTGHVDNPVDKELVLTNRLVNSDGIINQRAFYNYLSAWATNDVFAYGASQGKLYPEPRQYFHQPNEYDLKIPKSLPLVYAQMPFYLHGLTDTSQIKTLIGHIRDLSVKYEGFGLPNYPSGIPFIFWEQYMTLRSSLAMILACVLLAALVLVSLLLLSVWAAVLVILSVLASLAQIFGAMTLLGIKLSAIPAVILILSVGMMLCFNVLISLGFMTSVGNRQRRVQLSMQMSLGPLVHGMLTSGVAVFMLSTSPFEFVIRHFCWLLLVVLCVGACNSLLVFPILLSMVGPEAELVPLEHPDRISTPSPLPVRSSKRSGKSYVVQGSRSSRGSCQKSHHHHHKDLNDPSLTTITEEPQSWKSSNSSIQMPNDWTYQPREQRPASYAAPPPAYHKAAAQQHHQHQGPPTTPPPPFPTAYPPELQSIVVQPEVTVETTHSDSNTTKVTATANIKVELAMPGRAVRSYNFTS
substance,measurement,setting,value
HA tagged PKAc (3XHA-PKAc) (from UniProt P12370 1-353) (enzyme),binding,[1],binds
same,binding,[2],no binding
